Experimental data taken from the supplement of paper PMC4604168 (melanoma cell lines).
Some of the results follow. Most values come without repeats; read them as rough.

Tested on: SkMel2
Assay: cell count relative to DMSO control; melanoma cells; higher = more viable cells
Settings: library dose: standard library concentration; 72 h
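Further: cells treated in 1,536-well plates, then fixed and DAPI-stained, with nuclei counted from automated high-throughput microscope images.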

SMILES | cell count
COc1cc2c(Oc3ccc4[nH]c(C)cc4c3F)ncnc2cc1OCCCN1CCCC1 [cediranib] + CCN(CC)CCCCNc1ncc2cc(-c3cc(OC)cc(OC)c3)c(NC(=O)NC(C)(C)C)nc2n1 [PD173074] (first compound 2 µM, partner dose 0.5 µM) | 110%
NC(=O)c1ccc(N(C(N)=O)c2c(F)cccc2F)nc1-c1ccc(F)cc1F + CN(C)S(=O)(=O)c1ccc2c(c1)/C(=C/c1cc3c([nH]1)CCCC3)C(=O)N2 [SU6656] (first compound 2 µM, partner dose 2 µM) | 72.8%
CCCCCCCCc1ccc(CCC(N)(CO)CO)cc1 [fingolimod] + COCC[n+]1c2c(n(Cc3cnccn3)c1C)C(=O)c1ccccc1C2=O [YM155] (first compound 10 µM, partner dose 0.002 µM) | 0.089%
CC(C)(C)c1cnc(CSc2cnc(NC(=O)C3CCNCC3)s2)o1 + COc1ccc2c(c1)CCC1C2CCC2(C)C(NCCCCCCN3C(=O)C=CC3=O)CCC12 [U73122] (first compound 0.05 µM, partner dose 2 µM) | 111%
CC(C)(C)c1cnc(CSc2cnc(NC(=O)C3CCNCC3)s2)o1 + COc1ccc(COc2ccc(Cc3cnc(N)nc3N)cc2OC)cc1 [GW2580] (first compound 0.05 µM, partner dose 5 µM) | 83.2%

Tested on: SkMel30
Assay: as above
Settings: library dose: standard library concentration; 72 h

SMILES | cell count
COc1cc2c(Oc3ccc4[nH]c(C)cc4c3F)ncnc2cc1OCCCN1CCCC1 [cediranib] + N#Cc1c(O)c2c(-c3ccc(-c4ccccc4O)cc3)csc2[nH]c1=O [A769662] (first compound 2 µM, partner dose 10 µM) | 84.7%
CC(C)(C)c1cnc(CSc2cnc(NC(=O)C3CCNCC3)s2)o1 + CN(C)S(=O)(=O)c1ccc2c(c1)/C(=C/c1cc3c([nH]1)CCCC3)C(=O)N2 [SU6656] (first compound 0.05 µM, partner dose 2 µM) | 84%
COc1cc2c(Oc3ccc4[nH]c(C)cc4c3F)ncnc2cc1OCCCN1CCCC1 [cediranib] + COc1ccc(COc2ccc(Cc3cnc(N)nc3N)cc2OC)cc1 [GW2580] (first compound 2 µM, partner dose 5 µM) | 76.7%
CCCCCCCCc1ccc(CCC(N)(CO)CO)cc1 [fingolimod] + OCCn1cc(-c2cnc3nnn(Cc4ccc5ncccc5c4)c3n2)cn1 [PF04217903] (first compound 10 µM, partner dose 5 µM) | 19.5%
NC(=O)c1ccc(N(C(N)=O)c2c(F)cccc2F)nc1-c1ccc(F)cc1F + Clc1ccc(Nc2nnc(Cc3ccncc3)c3ccccc23)cc1 [vatalanib] (first compound 2 µM, partner dose 10 µM) | 101%
CCc1ccc(CCOc2ccc(CC3SC(=O)NC3=O)cc2)nc1 (centres undefined) [pioglitazone] + CC(C)CCN1c2nc(Nc3cc(F)c(O)c(F)c3)ncc2N(C)C(=O)C1C [BID1870] (first compound 10 µM, partner dose 1 µM) | 86.2%
Cc1ccc(NC(=O)c2cccc(N(C)C)c2)cc1NC(=O)c1ccc(O)cc1 + CN(C)S(=O)(=O)c1ccc2c(c1)/C(=C/c1cc3c([nH]1)CCCC3)C(=O)N2 [SU6656] (first compound 10 µM, partner dose 2 µM) | 92.2%
NC(=O)c1ccc(N(C(N)=O)c2c(F)cccc2F)nc1-c1ccc(F)cc1F + Cc1cc(N2CCOCC2)cc2[nH]c(-c3c(NC[C@@H](O)c4cccc(Cl)c4)cc[nH]c3=O)nc12 [BMS536924] (first compound 2 µM, partner dose 1 µM) | 83.9%
Cc1ccc(NC(=O)c2cccc(N(C)C)c2)cc1NC(=O)c1ccc(O)cc1 + CCCCCCCCCCCC1=C(O)C(=O)C=C(O)C1=O [Embelin] (first compound 10 µM, partner dose 6 µM) | 113%
CN(NC(=O)CC(=O)NN(C)C(=S)c1ccccc1)C(=S)c1ccccc1 + Cn1cc(/C=C2\C(=O)Nc3cccnc32)c2ccccc21 [GW441756] (first compound 0.03 µM, partner dose 2 µM) | 68.4%
CCCCCCCCc1ccc(CCC(N)(CO)CO)cc1 [fingolimod] + O=C(O)[C@@H]1[O][Sb](=[O])([O][Sb]2(=[O])[O][C@H]([C@H](O)CO)[C@H](O)[C@H](C(=O)O)[O]2)[O][C@H]([C@H](O)CO)[C@@H]1O [stibogluconate] (first compound 10 µM, partner dose 10 µM) | 17.2%
Cc1ccc(NC(=O)c2cccc(N(C)C)c2)cc1NC(=O)c1ccc(O)cc1 + COc1cc(N2CCC(N3CCN(C)CC3)CC2)ccc1Nc1ncc(Cl)c(Nc2ccccc2S(=O)(=O)C(C)C)n1 [NVP-TAE684] (first compound 10 µM, partner dose 0.4 µM) | 87.7%
COc1cc2c(Oc3ccc4[nH]c(C)cc4c3F)ncnc2cc1OCCCN1CCCC1 [cediranib] + COc1cc(N2CCC(N3CCN(C)CC3)CC2)ccc1Nc1ncc(Cl)c(Nc2ccccc2S(=O)(=O)C(C)C)n1 [NVP-TAE684] (first compound 2 µM, partner dose 0.4 µM) | 93.7%
COc1cc2c(Oc3ccc4[nH]c(C)cc4c3F)ncnc2cc1OCCCN1CCCC1 [cediranib] + Cn1cc(/C=C2\C(=O)Nc3cccnc32)c2ccccc21 [GW441756] (first compound 2 µM, partner dose 2 µM) | 80.7%
COc1cc2c(Oc3ccc4[nH]c(C)cc4c3F)ncnc2cc1OCCCN1CCCC1 [cediranib] + Oc1cc(-c2nc(-c3ccccc3)[nH]c2-c2ccncc2)ccc1Cl [L779450] (first compound 2 µM, partner dose 1 µM) | 71.9%
NC(=O)c1ccc(N(C(N)=O)c2c(F)cccc2F)nc1-c1ccc(F)cc1F + Cc1nc(Nc2ncc(C(=O)Nc3c(C)cccc3Cl)s2)cc(N2CCN(CCO)CC2)n1 [dasatanib] (first compound 2 µM, partner dose 0.02 µM) | 105%
CC(C)(C)c1cnc(CSc2cnc(NC(=O)C3CCNCC3)s2)o1 + c1cc(-c2cnn3cc(-c4ccc(OCCN5CCCCC5)cc4)cnc23)ccn1 [Dorsomorphin] (first compound 0.05 µM, partner dose 2 µM) | 74.3%
CC(C)(C)c1cnc(CSc2cnc(NC(=O)C3CCNCC3)s2)o1 + C[C@@H]1CCN(C(=O)CC#N)C[C@@H]1N(C)c1ncnc2[nH]ccc12 [CP690550] (first compound 0.05 µM, partner dose 5 µM) | 91.8%
CC(C)(C)c1cnc(CSc2cnc(NC(=O)C3CCNCC3)s2)o1 + Oc1nc(-c2ccc(C(F)(F)F)cc2)nc2c1CSCC2 [XAV939] (first compound 0.05 µM, partner dose 10 µM) | 90.5%
NC(=O)c1ccc(N(C(N)=O)c2c(F)cccc2F)nc1-c1ccc(F)cc1F + C=C(c1ccc(C(=O)O)cc1)c1cc2c(cc1C)C(C)(C)CCC2(C)C [Bexarotene] (first compound 2 µM, partner dose 10 µM) | 120%
CCc1ccc(CCOc2ccc(CC3SC(=O)NC3=O)cc2)nc1 (centres undefined) [pioglitazone] + N#Cc1c(O)c2c(-c3ccc(-c4ccccc4O)cc3)csc2[nH]c1=O [A769662] (first compound 10 µM, partner dose 10 µM) | 109%
CC(C)(C)c1cnc(CSc2cnc(NC(=O)C3CCNCC3)s2)o1 + Cc1cc([N+](=O)[O-])ccc1NS(=O)(=O)c1cc(Cl)ccc1Cl [FH535] (first compound 0.05 µM, partner dose 5 µM) | 81.7%
NC(=O)c1ccc(N(C(N)=O)c2c(F)cccc2F)nc1-c1ccc(F)cc1F + CN(c1ncccc1CNc1nc(Nc2ccc3c(c2)CC(=O)N3)ncc1C(F)(F)F)S(C)(=O)=O [PF562271] (first compound 2 µM, partner dose 0.4 µM) | 79.9%
Cc1ccc(NC(=O)c2cccc(N(C)C)c2)cc1NC(=O)c1ccc(O)cc1 + Cc1cc(N2CCOCC2)cc2[nH]c(-c3c(NC[C@@H](O)c4cccc(Cl)c4)cc[nH]c3=O)nc12 [BMS536924] (first compound 10 µM, partner dose 1 µM) | 109%
Cc1ccc(NC(=O)c2cccc(N(C)C)c2)cc1NC(=O)c1ccc(O)cc1 + Cn1cc(/C=C2\C(=O)Nc3cccnc32)c2ccccc21 [GW441756] (first compound 10 µM, partner dose 2 µM) | 86.6%
CC(C)(C)c1cnc(CSc2cnc(NC(=O)C3CCNCC3)s2)o1 + OCCn1cc(-c2cnc3nnn(Cc4ccc5ncccc5c4)c3n2)cn1 [PF04217903] (first compound 0.05 µM, partner dose 5 µM) | 96.5%
NC(=O)c1ccc(N(C(N)=O)c2c(F)cccc2F)nc1-c1ccc(F)cc1F + CCCCCCCCc1ccc(CCC(N)(CO)CO)cc1 [fingolimod] (first compound 2 µM, partner dose 10 µM) | 8.66%
NC(=O)c1ccc(N(C(N)=O)c2c(F)cccc2F)nc1-c1ccc(F)cc1F + C[C@@H](Oc1cc(-c2cnn(C3CCNCC3)c2)cnc1N)c1c(Cl)ccc(F)c1Cl [Crizotinib] (first compound 2 µM, partner dose 1 µM) | 92.8%
CCCCCCCCc1ccc(CCC(N)(CO)CO)cc1 [fingolimod] + C=C(c1ccc(C(=O)O)cc1)c1cc2c(cc1C)C(C)(C)CCC2(C)C [Bexarotene] (first compound 10 µM, partner dose 10 µM) | 10.5%
